About 550 (1.1%) of roughly 48,000 compounds were called active. Roughly 4% stayed inconclusive and do not appear here. Cut-off read from the data, not from the text of the source: active = potency below about 15 µM; inconclusive = mostly about 16 µM to 33 µM; inactive = weaker than that. The list shows a part of the results.
Potency is the fitted concentration of half-maximal effect.

This assay has as its target Lysosomal acid glucosylceramidase (Homo sapiens) (UniProt P04062). Kind of assay: Glucocerebrosidase.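 Note: the screen sought inhibitors.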 Particulars: purified enzyme, resorufin glucoside fluorescence (screen aimed at inhibitors), 20 min. A digest of the protocol: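 Normal human glucocerebrosidase (0.2 nM final) was assayed with resorufin β-D-glucopyranoside (30 uM final) in 50mM citric acid/KH2PO4, 10mM sodium taurocholate, 0.01% tween-20, pH 5.9. Compounds were titrated; fluorescence (Ex 548, Em 600) read after 20 min at RT.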
UniProt P04062, sequence (P04062 whole entry, looked up): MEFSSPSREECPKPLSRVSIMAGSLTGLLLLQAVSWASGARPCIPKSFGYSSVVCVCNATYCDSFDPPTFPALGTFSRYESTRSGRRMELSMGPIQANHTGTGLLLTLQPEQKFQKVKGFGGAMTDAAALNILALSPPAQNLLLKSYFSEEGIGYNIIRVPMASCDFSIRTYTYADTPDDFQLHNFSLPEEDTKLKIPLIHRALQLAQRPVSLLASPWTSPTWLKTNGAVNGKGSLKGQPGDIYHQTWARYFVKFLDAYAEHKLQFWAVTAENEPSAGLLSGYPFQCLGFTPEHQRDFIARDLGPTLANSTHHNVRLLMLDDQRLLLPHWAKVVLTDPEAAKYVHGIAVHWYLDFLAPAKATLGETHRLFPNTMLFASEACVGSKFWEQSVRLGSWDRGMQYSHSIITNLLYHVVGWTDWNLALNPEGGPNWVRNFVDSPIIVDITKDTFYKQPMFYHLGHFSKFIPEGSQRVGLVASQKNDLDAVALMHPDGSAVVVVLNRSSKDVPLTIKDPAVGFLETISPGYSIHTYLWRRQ
In the case of `CN(C)c1cccc(-c2nnc(SCCCC#N)o2)c1`, the Potency is inactive: > 76.9 µM. As for `COc1ccccc1NC(=O)CSc1nnc(COc2ccc(Cl)cc2)n1Cc1ccco1`, the entry is “inactive”. As for `CCCCOc1ccc(-c2c(C#N)c(N)nc(SCC(N)=O)c2C#N)cc1`, the figure is active: 8.78 µM; as for `CSc1ccc(-c2c(C#N)c(N)nc3c2CCCC3)cc1`, inactive: > 76.9 µM; as for `CC(=O)Nc1coc2ccc(Br)cc12`, inactive: > 76.9 µM. With `Cc1cc(Cl)cc(Br)c1OCCCCn1cncn1`, the Potency is inactive: > 76.9 µM. As for `CC1CC(C)CN(CC(C)(C)NS(=O)(=O)c2ccccc2)C1` (configuration not stated), the figure is inactive: > 76.9 µM; as for `COc1cccc(C(=O)CSc2nc3ccccc3n2CC(=O)N2CCOCC2)c1`, inactive: > 76.9 µM; as for `CCOC(=O)c1c(NC(=O)CN2CCN(c3ccccn3)CC2)sc2c1CCCC2`, inactive: > 76.9 µM.

As for `CCOc1ccc(-c2cc(CCCC(=O)NCCCOC)no2)cc1`, the Potency was inactive: > 76.9 µM. With `NC(=O)C1(N2CCCCC2)CCN(C(=O)CSc2nc3ccccc3s2)CC1` the figure was inactive: > 76.9 µM. As for `CCN1CCCC1CNC(=O)c1cn(CC)c2ccc(S(=O)(=O)N3CCCCCC3)cc2c1=O` (configuration not stated), the figure is inactive: > 76.9 µM. For `CC(C)(C)OC(=O)N1CCNc2ccccc2C1`, the Potency was inactive: > 76.9 µM.

In the case of `CSc1nnc(-c2ccc(F)cc2)o1`, the Potency is inactive: > 76.9 µM.

Turning to `CCOC(=O)COc1ccc2c(c1)C(=O)CC(C)(C)O2`, the Potency is inactive: > 76.9 µM. With `COc1ccccc1OCC(=O)NCc1ccco1` the figure was inactive: > 76.9 µM. Take `COc1ccc(OC)c(NC(=O)CSc2nnnn2-c2ccc3c(c2)OCO3)c1`: the Potency was inactive: > 76.9 µM. With `CS(=O)(=O)N(CC(N)=O)c1ccc2c(c1)OCO2` the figure was inactive: > 76.9 µM; with `COc1ccc(-n2ncc3c(=O)n(CC(=O)OCc4ccccc4)cnc32)cc1`, inactive: > 76.9 µM; with `CCC1(C)CC(c2csc(N)n2)CCO1` (configuration not stated), inactive: > 76.9 µM.

As for `Cc1cccc(C(=O)Nc2ccc(CC(=O)O)cc2)c1`, the Potency was inactive: > 76.9 µM. As for `CC(=O)Nc1nc(COc2ccccc2)cs1`, the Potency is inactive: > 76.9 µM.

Regarding `Cn1c(SCC(=O)C(C)(C)C)nnc1-c1cccnc1`, the Potency is inactive: > 76.9 µM. With `O=C(CN1CCOCC1)NCCNC(=O)CN1CCOCC1` the figure was inactive: > 76.9 µM; with `COc1ccc(CCNC(=O)c2ccc(NS(=O)(=O)c3c(C)noc3C)cc2)cc1OC`, “inactive”; with `COc1nc(-c2ccccc2)ccc1-c1noc(-c2ccccc2)n1`, inactive: > 76.9 µM. With `COCCn1cc(C(=O)NCCCN2CCC(C)CC2)c2c3ccccc3n(C)c2c1=O` the figure was inactive: > 76.9 µM; with `Cc1cccc(C)c1OCc1nnc2c3cnn(C)c3ncn12`, inactive: > 76.9 µM. With `COc1ccc(N(Cc2cc3cc(OC)ccc3[nH]c2=O)S(C)(=O)=O)cc1` the figure was inactive: > 76.9 µM; with `CCN(CC)S(=O)(=O)c1ccc(-c2nnc(SCC(=O)N3c4ccccc4CC3C)o2)cc1` (configuration not stated), inactive: > 76.9 µM.

On to `O=C(CCCn1c(=O)c2ccccc2n(Cc2ccccc2)c1=O)NCc1ccco1`, for which the Potency was inactive: > 76.9 µM. Consider `COc1nonc1NCn1nc(C)cc1C`, for which the Potency is inactive: > 76.9 µM. With `CSc1ccc(C2C(C#N)=C(N)Oc3cc4c(cc32)OCO4)cc1` (configuration not stated) the figure was inactive: > 76.9 µM. As for `CCN(CC)C(NC(=O)c1ccccc1)C(=O)c1ccccc1` (configuration not stated), the figure is inactive: > 76.9 µM; as for `CCn1c(CNc2ccccc2Cl)nnc1SCC(=O)NCc1ccccc1`, inactive: > 76.9 µM; as for `CC1CCC(C(=O)NC(C(=O)N2CCC(N3CCCCC3)CC2)C(C)C)CC1` (configuration not stated), inactive: > 76.9 µM.

For the molecule `CC(=O)Nc1ccc(S(=O)(=O)N2CCN(Cc3ccncc3)CC2)cc1`, the Potency is inactive: > 76.9 µM. With `CN1C(=O)C2(C(C#N)=C(N)Oc3c2oc(CO)cc3=O)c2ccccc21` (configuration not stated) the figure was inactive: > 76.9 µM. With `COc1ccccc1OCCCn1c(=O)oc2ccc(C)cc21` the figure was inactive: > 76.9 µM.

For the molecule `COc1ccccc1CNC(=O)CNC(=O)Cn1cnc2ccccc2c1=O`, the Potency was inactive: > 76.9 µM. As for `Cc1ccccc1CSCC(=O)c1c(N)n(C)c(=O)n(C)c1=O`, the figure is inactive: > 76.9 µM. With `COc1ccc(N2CCN(C(=O)CSc3ccccc3N)CC2)cc1` the figure was inactive: > 76.9 µM; with `Cc1cccnc1N(C(=O)Nc1ccccc1)C1=NCC(C)(C)S1`, inactive: > 76.9 µM. Take `O=C(NCC(=O)N(c1ccccc1F)C(C(=O)NCC1CCCO1)c1ccccc1)c1ccco1` (configuration not stated): the Potency was inactive: > 76.9 µM.

For `N#Cc1nc(-c2ccco2)oc1N1CCCC1`, the Potency is inactive: > 76.9 µM. Regarding `COc1ccc(CCNC(=O)CN2C(=O)c3ccccc3S2(=O)=O)cc1`, the Potency is inactive: > 76.9 µM.

Turning to `COc1ccc(-n2nc(C(=O)NCc3ccco3)c3c4ccccc4n(C)c3c2=O)cc1Cl`, the Potency was inactive: > 76.9 µM. As for `CSc1nc2ccccc2n1CC(=O)Nc1c(C)n(C)n(-c2ccccc2)c1=O`, the figure is inactive: > 76.9 µM. For the molecule `COc1ccc(OC)c(NC=C2C(=O)OC(C)(C)OC2=O)c1`, the Potency is inactive: > 76.9 µM. Consider `COC(=O)c1ccccc1N1C(=O)C2C(C1=O)C1C=CC2C12CC2` (configuration not stated), for which the Potency was inactive: > 76.9 µM. With `Cn1c(=O)c2cc(S(=O)(=O)Nc3cccc(F)c3)ccc2n(C)c1=O` the figure was inactive: > 76.9 µM; with `C=CCN1CC2CC3(COc4cc(C)cc(C)c4)C=CC2(O3)C1=O` (configuration not stated), inactive: > 76.9 µM; with `COc1ccc(-n2c(=O)c3c4c(sc3n(CC(=O)NCc3ccco3)c2=O)CCC4)c(OC)c1`, inactive: > 76.9 µM. With `CCN1CCN(CCCNC(=O)C2c3ccccc3C(=O)N(C)C2c2ccc(OC)cc2)CC1` (configuration not stated) the figure was inactive: > 76.9 µM. As for `Cn1c(=O)c2c(n(C)c1=O)=NC1(CCCCC1)N=2`, the figure is inactive: > 76.9 µM; as for `COc1ccccc1-c1cc(C(=O)Nc2c(C)n(C)n(-c3ccccc3)c2=O)no1`, inactive: > 76.9 µM.

Regarding `CCOC(=O)c1ccccc1NC(=O)CSc1nc2ccccc2o1`, the Potency is inactive: > 76.9 µM. As for `O=C(CCCSc1nc2ccccc2s1)NC1=NCCS1`, the entry is “inactive”; as for `CC(C)C(=O)NCCc1nc2ccccc2n1C`, inactive: > 76.9 µM; as for `CCC(C)C(NC(=O)C1CCC(C)CC1)C(=O)NCc1cccnc1` (configuration not stated), inactive: > 76.9 µM.

For the molecule `O=C1CN(C(=O)COC(=O)CCC(=O)c2ccc3c(c2)OCCO3)c2ccccc2N1`, the Potency was inactive: > 76.9 µM. For the molecule `O=C(O)CSc1nnc(Cn2cnc3ccccc32)n1CCc1ccccc1`, the Potency was inactive: > 76.9 µM. With `CCOC(=O)CCc1c(C)nc2ncnn2c1C` the figure was inactive: > 76.9 µM; with `CC(=O)OCn1nnc2ccccc2c1=O`, inactive: > 76.9 µM.

Take `CSCCC(NS(=O)(=O)c1ccc(Cl)cc1)C(=O)OCC(=O)N1CCOCC1` (configuration not stated): the Potency is inactive: > 76.9 µM.

For the molecule `O=S(=O)(Nc1cccnc1)c1cccs1`, the Potency is inactive: > 76.9 µM.

Regarding `O=C(Nc1nc(-c2ccc(Cl)s2)cs1)c1ccncc1`, the Potency is inactive: > 76.9 µM. With `COCc1c(C)cc(C)c(/C=N/O)c1C`, the Potency is inactive: > 76.9 µM. As for `C1CCC2(CC1)OCC1(CO2)COC2(CCCCC2)OC1`, the figure is inactive: > 76.9 µM; as for `CC(C)NS(=O)(=O)c1ccc(OCC(=O)Nc2ccc3c(c2)OCO3)c(Cl)c1`, inactive: > 76.9 µM; as for `O=C(c1cccc(C(=O)N2CCN(c3ncccn3)CC2)c1)N1CCN(c2ncccn2)CC1`, inactive: > 76.9 µM.

For `COc1ccc(NC(=O)c2c(OC)cccc2OC)c(OC)c1`, the Potency was inactive: > 76.9 µM. As for `CCN(CC)C(=O)c1ccc(NS(=O)(=O)c2ccccc2)cc1`, the figure is inactive: > 76.9 µM; as for `CCCN1C(=O)c2ccc(C(=O)Nc3cc(C)on3)cc2C1=O`, inactive: > 76.9 µM; as for `CCCCCC(=O)Nc1ccc(S(=O)(=O)Nc2nccnc2OC)cc1`, inactive: > 76.9 µM. As for `COc1ccccc1C(=O)N(CN1CCCC1=O)c1cccc(Cl)c1`, the figure is inactive: > 76.9 µM; as for `Cc1cc(C)nc(SCCC(=O)N(C)C)n1`, inactive: > 76.9 µM; as for `N=C1C(c2nc(-c3ccc(Cl)cc3)cs2)=C(O)CN1CCCN1CCOCC1`, inactive: > 76.9 µM. As for `Cc1c(C)n(Cc2ccccc2)c2ncnc(N)c12`, the figure is inactive: > 76.9 µM. For `O=C(CCC(=O)N(CC(=O)NC1CCCCC1)c1ccc2c(c1)OCO2)Nc1ccccn1`, the Potency was inactive: > 76.9 µM. As for `COc1cccc(-c2cc(C(F)(F)F)n3ncc(C(=O)O)c3n2)c1`, the figure is inactive: > 76.9 µM; as for `NS(=O)(=O)c1ccc(NC(=O)CSc2nnc(-c3cnccn3)n2-c2ccccc2)cc1`, inactive: > 76.9 µM. As for `CC(=O)Nc1ccc(S(=O)(=O)Nc2nccc(C3Cc4ccccc4C(=O)O3)n2)cc1` (configuration not stated), the figure is inactive: > 76.9 µM; as for `COc1ccc(NC(=O)C2CCCN2c2ccc(OC)c(OC)c2)cc1OC` (configuration not stated), inactive: > 76.9 µM; as for `O=c1[nH]cnc2c1oc1ccccc12`, inactive: > 76.9 µM. As for `C[N+](C)(C)C/C=C1/COCO1`, the figure is inactive: > 76.9 µM; as for `COC(=O)c1cn(NC(=O)c2cccnc2)c(=O)c2ccccc12`, inactive: > 76.9 µM.

Regarding `CCOC(=O)C1=C(c2ccccc2)NC(SCC(=O)NC2CCCCC2)=C(C#N)C1c1ccco1` (configuration not stated), the Potency is active: 7.7 µM. `Cn1c(=O)c2c(nc(CN3CCOCC3)n2Cc2ccccc2)n(C)c1=O`: the Potency is inactive: > 76.9 µM. As for `COC(=O)CCC(=O)Nc1sc2c(c1C#N)CCCC2`, the figure is inactive: > 76.9 µM.

Turning to `CCCN1C(=O)C2(/C(=C(\O)c3ccc4c(c3)OCCO4)C(=O)C(=O)N2CCCOC)c2ccccc21` (configuration not stated), the Potency was inactive: > 76.9 µM. As for `Cc1ccc(C(O)c2nc3ccccc3n2C(C)C)cc1` (configuration not stated), the figure is inactive: > 76.9 µM.

Values taken from PubChem BioAssay AID360 (National Center for Advancing Translational Sciences (NCATS), 2006).
